In PubChem BioAssay AID686978 (National Center for Advancing Translational Sciences (NCATS), 2013):
Screen size: about 420,000 compounds; about 64,000 (15%) were called active. This list was built around the results that the source calls inconclusive (neither active nor inactive); the mix of calls is not that of the screen. Calls come from the whole dose curve; as a rule, active = well fitted inhibition curve with a large enough effect; inconclusive = small, poorly fitted or top-dose-only effect; inactive = flat fitted curve, though single readings scatter. No potency is given beside an inconclusive call; the fits are too rough.

Assay: qHTS for Inhibitors of human tyrosyl-DNA phosphodiesterase 1 (TDP1): qHTS in cells in absence of CPT; note: nearly all actives have a fitted effect of over 55% in size
Settings: DT40 Tdp1-/- hTDP1 cells, no CPT, ATP luminescence, 48 h; activity change, negative = growth inhibition: at 46.2 µM (top of the series) unless noted
Summary of the method: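 Chicken DT40 Tdp1-/- cells complemented with human TDP1, screened without camptothecin (DMSO vehicle only), 400 cells/well. Compounds pin-transferred, cells incubated at 37 °C for at least 48 hr. Growth read as ATP-dependent luminescence (CellTiter-Glo, 30 min at RT).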
% is set by controls: 0 for no effect and ±100 for the full control effect; potency is the fitted concentration of half-maximal effect; tags give direction and shape of the fitted curve.

| Structure (SMILES) | Potency | activity change, negative = growth inhibition |
| --- | --- | --- |
| COCCNc1nc(N)c([N+](=O)[O-])c(Nc2ccc(F)cc2)n1 | inactive |  |
| COc1cc(NC(=S)NCc2ccc(S(N)(=O)=O)cc2)c(OC)cc1Cl | inconclusive [inhibitor, single point] |  |
| COc1cccc(-c2cc(C(=O)N/N=C/c3ccc(OC)c(COC(C)=O)c3)c3ccccc3n2)c1 | active: 2.06 µM |  |
| c1ccc(CCc2ccccc2-c2nc(-c3cccnc3)no2)cc1 | inconclusive [inhibitor, partial curve, poor fit] |  |
| Cc1cccc(Cn2ccc(N)n2)c1 | inactive |  |
| O=C(O)c1ccc(COc2ccccc2/C=C2\NC(=O)N(Cc3ccccc3F)C2=O)cc1 | inconclusive [inhibitor, single point] |  |
| O=C(Nc1ccc(C(F)(F)F)cc1)c1cc(S(=O)(=O)N2CCCc3ccccc32)ccc1F | active: 10.3 µM |  |
| O=C(Nc1cccc2c1CCCC2)c1ccncc1 | inactive |  |
| CCOC(=O)CNc1nc(Cl)nc(Nc2ccc(Cl)cc2)n1 | inactive |  |
| Cc1nn(C)cc1C(C)NC(=O)c1cc(COc2cccc3cnccc23)on1 (centres undefined) | inconclusive [inhibitor, single point] |  |
| O=C(Nc1ccccc1C(F)(F)F)N1CCN(c2ccccn2)CC1 | inactive |  |
| CC(C)N(C(=S)Nc1ccc(S(=O)(=O)N2CCOCC2)cc1)c1ccccc1 | inconclusive [inhibitor, single point] |  |
| COCCn1c(=NC(=O)CSCC(=O)N2CCOCC2)sc2ccccc21 | inactive |  |
| COc1ccccc1NC(=O)Nc1nc(C(N)Cc2ccc(Cl)cc2)cs1 (centres undefined) | active: 23.1 µM |  |
| Cc1ccc(S(=O)(=O)N2CCC(C(=O)NN3CCCCC3)CC2)cc1 | inactive |  |
| COc1cccc(NC(=O)C2CCN(S(=O)(=O)c3ccc4c(c3)C(C)(C)C(=O)N4C)CC2)c1 | inconclusive [inhibitor, single point] |  |
| Cc1cc(OCC(F)(F)C(F)(F)C(F)(F)C(F)(F)C(F)(F)C(F)F)nc(N)n1 | inconclusive [inhibitor, single point] |  |
| CC(C)[C@H](NC(=O)OC(C)(C)C)C(=O)N/N=C/c1cccc2nccnc12 |  | inconclusive: -30% [inhibitor] |
| COC(=O)c1cc(NC(=O)CN(c2ccccc2OC)S(=O)(=O)c2ccccc2)ccc1Cl | inconclusive [inhibitor, single point] |  |
| COc1cccc(NS(=O)(=O)c2ccc3c(c2)NC(=O)C(C)S3)c1 (centres undefined) |  | inconclusive: -31.8% [inhibitor] |
| Cc1c(C(=O)Nc2ccccn2)oc2c(Cl)cccc12 | inconclusive [inhibitor, single point] |  |
| CCc1ccccc1N1C(=O)c2ccccc2S1(=O)=O | inconclusive [inhibitor, partial curve, poor fit] |  |
| COc1ccccc1N1CCN(CCCNC(=O)C2CCCN(c3ncnc4c3nc3n4CCCCC3)C2)CC1 (centres undefined) | inconclusive [inhibitor, single point] |  |
| COc1ccc(Cc2noc(CN(C)Cc3cccc(-n4cccn4)c3)n2)cc1OC | inconclusive [inhibitor, single point] |  |
| CCCN1CCN(C(=O)C(C)n2nc(C)c3sc4ccccc4c3c2=O)CC1 (centres undefined) | active: 18.4 µM |  |

| Structure (SMILES) | Potency | activity change, negative = growth inhibition |
| --- | --- | --- |
| Clc1ccc(CN2CCc3nc(N4CCN(c5ccccn5)CC4)ncc3C2)cc1 | inactive |  |
| Cc1ccc(/C=N/n2c(C)nnc2C)o1 | inconclusive [inhibitor, single point] |  |
| Cc1c(C(=O)Nc2nc3ccccc3[nH]2)oc2ccc(Br)cc12 | inconclusive [inhibitor, single point] |  |
| CCOc1ccc(CC(=O)OCN2C(=O)c3ccccc3C2=O)cc1 | inactive |  |
| O=C(/C=C/c1ccccc1)Nc1nc2n(n1)C(c1ccc(Cl)cc1)C=C(c1ccccc1)N2 (centres undefined) | active: 23.1 µM |  |
| CN(C)c1ncc2nc(-c3cccc(C#N)c3)c(=O)n(C[C@H]3CCCO3)c2n1 | inactive |  |
| CC(C)C[C@H]1CN([C@@H](CC(C)C)CN2CCC[C@@H]2CN2C(=S)NC[C@@H]2Cc2ccc(O)cc2)C(=S)N1CCc1ccccc1 | active: 9.2 µM |  |
| O=C(NC1CCC(CC2CCC(NC(=O)C(Cl)Cl)CC2)CC1)C(Cl)Cl (centres undefined) | inactive |  |
| Cc1nnsc1C(=O)Oc1ccc(C#N)cc1 | inactive |  |
| CCn1nnnc1SCC(=O)Nc1ccc(N(C)C)cc1 | inactive |  |
| COc1ccc(-n2c(SCC(=O)Nc3cc(C)on3)nc3c(c2=O)SCC3)cc1 | inconclusive [inhibitor, full curve, poor fit] |  |
| CCN(CC(=O)NCc1ccc(F)cc1)C(=O)c1oc2ccccc2c1C | inconclusive [inhibitor, partial curve] |  |
| CCSC1=NN2CCS(=O)(=O)N=C2S1 | inactive |  |
| O=C(Nc1cccc([N+](=O)[O-])c1)Nc1cccs1 | inconclusive [inhibitor, single point] |  |
| CCOC(=O)c1cc(-c2ccccc2)n(CCCC(=O)Nc2cccc(C)c2)c1C | active: 16.4 µM |  |
| Cc1nn(-c2ccccc2)nc1C(=O)c1c(C)[nH]n(-c2ccccc2)c1=O | active: 3.66 µM |  |
| Cn1c(NN)nc2sc3c(c2c1=O)CCC3 | active: 29.1 µM |  |
| CCc1nc2ccccc2n1CCCCOc1cccc(C)c1 | active: 23.1 µM |  |
| COc1ccc(S(=O)(=O)NC2CCCC2)c(OC)c1 | inactive |  |
| CCCOc1ccc(NC(=O)CC2C(=O)N(c3ccc(OC)cc3)C(=O)N2CCc2ccncc2)cc1 (centres undefined) | inconclusive [inhibitor, single point] |  |
| Cc1ccc(C)c(S(=O)(=O)N2CCN(C(=O)C(C)Sc3ccccc3)CC2)c1 (centres undefined) | inconclusive [inhibitor, single point] |  |
| COC(=O)c1cc(CNC(=O)c2ccccc2F)cc(NC(=O)c2ccccc2OC)c1 | active: 23.1 µM |  |
| O=C(COC(=O)/C=C/c1cccc([N+](=O)[O-])c1)NCc1ccc2c(c1)OCO2 | inactive |  |
| FC(F)(F)c1nc2nccnc2[nH]1 | inconclusive [inhibitor, single point] |  |
